# Test results from paper PMC4336329 (PLoS ONE, 2015).
# Hit rate of the full screen: of about 310,000 compounds, about 2,200 (0.71%) showed an effect of 50% or more. Effects have a minus sign here. This is one part of the list.
# Biological target: human ether-à-go-go-related gene (hERG) potassium channel (human, UniProt Q12809)
# Assay: primary screen, population patch clamp on CHO cells stably expressing hERG
# Chain of human ether-à-go-go-related gene (hERG) potassium channel (Q12809 whole entry, looked up): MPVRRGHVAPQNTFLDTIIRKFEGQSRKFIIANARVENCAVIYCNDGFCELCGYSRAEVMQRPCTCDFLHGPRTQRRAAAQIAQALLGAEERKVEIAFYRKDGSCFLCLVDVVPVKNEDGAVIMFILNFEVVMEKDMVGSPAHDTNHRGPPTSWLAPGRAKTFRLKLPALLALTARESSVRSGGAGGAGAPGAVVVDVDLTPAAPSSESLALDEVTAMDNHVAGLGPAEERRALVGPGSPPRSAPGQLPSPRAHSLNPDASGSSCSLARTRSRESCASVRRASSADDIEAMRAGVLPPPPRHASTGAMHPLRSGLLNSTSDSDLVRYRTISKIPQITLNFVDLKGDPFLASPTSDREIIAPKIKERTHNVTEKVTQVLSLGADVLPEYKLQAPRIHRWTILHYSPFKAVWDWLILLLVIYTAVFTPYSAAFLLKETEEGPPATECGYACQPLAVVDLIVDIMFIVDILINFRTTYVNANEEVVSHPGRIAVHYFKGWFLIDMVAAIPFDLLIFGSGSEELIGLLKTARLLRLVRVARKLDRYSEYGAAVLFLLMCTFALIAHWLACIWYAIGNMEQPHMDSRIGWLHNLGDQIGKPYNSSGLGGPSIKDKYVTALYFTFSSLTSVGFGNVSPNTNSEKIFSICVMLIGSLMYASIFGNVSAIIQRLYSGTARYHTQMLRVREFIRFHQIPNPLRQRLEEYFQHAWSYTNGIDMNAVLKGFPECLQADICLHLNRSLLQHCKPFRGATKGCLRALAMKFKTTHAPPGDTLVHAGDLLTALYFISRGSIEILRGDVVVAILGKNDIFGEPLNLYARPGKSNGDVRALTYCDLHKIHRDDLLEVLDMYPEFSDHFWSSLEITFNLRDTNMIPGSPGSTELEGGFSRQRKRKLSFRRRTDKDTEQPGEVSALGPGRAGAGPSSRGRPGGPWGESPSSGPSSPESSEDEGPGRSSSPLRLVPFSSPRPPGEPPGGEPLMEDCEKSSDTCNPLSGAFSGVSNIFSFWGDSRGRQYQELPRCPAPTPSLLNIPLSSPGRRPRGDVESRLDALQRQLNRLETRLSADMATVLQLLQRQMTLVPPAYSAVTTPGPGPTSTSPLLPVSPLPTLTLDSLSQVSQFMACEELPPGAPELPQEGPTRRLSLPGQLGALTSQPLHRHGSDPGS
row,SMILES,"hERG current change (%, negative = inhibition) at 1uM"
1,O=C(NCCCN1CCCC1=O)c1ccc(S(=O)(=O)Nc2ccccc2)cc1,10.6%
2,CCS(=O)(=O)N1Cc2ccccc2CC1C(=O)Nc1ccc(OC)cc1 (stereo not shown),10%
3,Cn1c(=O)c2c(ncn2C)n(C)c1=O,11.7%
4,Cc1c(C(=O)N2CCN(C)CC2)oc2c1C(=O)CC(C)(C)C2,8.64%
5,Cc1cc(OCc2cc(C(=O)NCc3cc(C(C)C)no3)no2)cc(C)c1Cl,8.22%
6,COC(=O)c1cc(C)sc1NC(=O)C1CC(=O)NN1Cc1ccccc1 (stereo not shown),13.9%
7,CC(=O)NN1C(=O)c2ccccc2NC1c1ccoc1 (stereo not shown),15.4%
8,N#CC1=C(N)Oc2cc(O)ccc2C1C1CCCCC1 (stereo not shown),10.5%
9,COc1ccc(N(CC(=O)N2CCCCC2)S(=O)(=O)c2ccccc2)c(OC)c1,10.6%
10,CSc1cccc(NC(=O)CN(C)S(=O)(=O)c2ccc(C)cc2)c1,3.07%
11,COc1cc(C(CCN2CCCC(C)C2)c2c(OC)cc(OC)c3c(-c4ccccc4)cc(=O)oc23)cc(OC)c1OC (stereo not shown),3.69%
12,Cc1ccc(S(=O)(=O)N2CCOC2CNC(=O)C(=O)NCCc2c[nH]c3ccccc23)cc1 (stereo not shown),6.84%
13,CCOC(=O)c1sc(=NC(=O)c2ccc(F)cc2)n(C)c1C,14%
14,CCC1NC(=S)N(C2CCCCC2)C1=O (stereo not shown),3.79%
15,Cc1cc(=S)cc(C)n1CCCn1ccnc1,1.77%
16,O=C1c2ccccc2CN1C(CO)c1ccccc1 (stereo not shown),10.8%
17,CC(=O)N1CCN(c2ccc(NC(=O)c3ccc(F)cc3)cc2)CC1,4.5%
18,Cc1ccc2nc(/C(C#N)=C\c3ccc(N4CCCCC4)c([N+](=O)[O-])c3)[nH]c2c1,8.84%
19,O=C(O)CSCc1ccc(C(=O)O)o1,18.4%
20,COc1cc(OC)c2c(c1)C(=O)c1cc(OC)cc(OC)c1C2=O,9.08%

row,SMILES,"hERG current change (%, negative = inhibition) at 1uM"
1,Cc1cc(C(=O)CN2CCCCC2)c(C)n1-c1ccc(F)cc1,5.63%
2,CC1(C)C(=O)Nc2ccccc2N1C(=O)COc1ncnc2ccccc12,6.74%
3,Fc1ccc(NC(=S)NNc2ncc(C(F)(F)F)cc2Cl)c(F)c1,6%
4,O=C(Nc1nnc(Cc2ccc([N+](=O)[O-])cc2)s1)c1ccc2c(c1)OCO2,6.34%
5,CN(C)C(=O)c1cnc(-c2ccccc2)nc1-c1ccccc1,16.9%
6,CCCCCOC(=O)C(C)c1c(C)[nH]c(=S)[nH]c1=O (stereo not shown),8.79%
7,CCOC(=O)c1ccc(NC2c3ccccc3C(=O)N2c2ccccn2)cc1 (stereo not shown),8.98%
8,CCOc1ccc(C2N(c3ccc(F)cc3)C(=O)C3CCCN32)cc1OC (stereo not shown),-11.5%
9,Cc1cc(Cl)c(S(=O)(=O)Nc2ccc3c(c2)OCCO3)cc1OCC(N)=O,4.88%
10,O=C1CCC(C(=O)N2CCCCO2)CN1Cc1ccc(Cl)cc1 (stereo not shown),17.8%
11,CC(=O)Nc1ccc(C2NC(=S)N(c3ccccc3C(F)(F)F)C(C)=C2C(=O)N2CCOCC2)cc1 (stereo not shown),8.49%
12,Cc1cc(C(=O)Cn2nc(C(=O)O)c3ccccc3c2=O)c(C)n1C1CC1,8.19%
13,CC(NC(=O)c1cccc(Cl)c1)C1CC2CCC1C2 (stereo not shown),12.2%
14,Cn1nnc(NC(=S)NC(=O)c2cccc3c(Cl)cccc23)n1,24.1%
15,Cc1ccc(-c2cc(C(=O)Nc3cc(C)on3)c3ccccc3n2)c(C)c1,7.18%
16,O=C(c1ccccc1)c1nc[nH]c1C(=O)Nc1ccccc1,7.84%
17,CCOC(=O)C1=C(N)c2ccccc2CC1C1CCCC1 (stereo not shown),15.7%
18,Cl.NC(N)=NC(N)=NCCc1ccccc1,12.9%
19,CCCN(CC1CCCO1)C(=O)CCc1nnc(-c2cc(C)on2)o1 (stereo not shown),4.79%
20,CCCNC(=O)c1c(N)n(-c2cccc(OC)c2)c2nc3ccccc3nc12,3.02%

row,SMILES,"hERG current change (%, negative = inhibition) at 1uM"
1,CCOC(=O)CSc1nnc(-c2ccc3ncccc3c2)n1C,-2.83%
2,Cc1ccc(Sc2cc(N3CCOCC3)nc(-c3ccccc3)n2)cc1,2.51%
3,Cc1cccc(N2CCN(C(=O)c3cc4n(n3)C(C(F)(F)F)CC(c3ccco3)N4)CC2)c1C (stereo not shown),22.5%
4,O=C(CNS(=O)(=O)c1ccc(Br)cc1)N1CCN(c2ccc(F)cc2)CC1,-4.67%
5,COc1ccc(C(=O)Nc2ccc(NC(=O)C3CC3)nc2)cc1,16.2%
6,O=C(NC1CCCc2ccccc21)C1CCN(c2nnc(-n3cccc3)s2)CC1 (stereo not shown),2.19%
7,C=CCn1c(C(CCC(C)C)CC(C)(C)O)n[nH]c1=S (stereo not shown),13.9%
8,COc1ccc(CCNC(=O)c2ccccc2C(=O)NCCc2ccc(OC)cc2)cc1,-1.22%
9,Cc1sc2nc(-c3ccccc3)oc(=O)c2c1C,2.92%
10,Cc1nn(C)c(Cl)c1CN1CCC(CO)(CCOc2ccccc2)CC1,-12.9%
11,Cc1ccnc(SCCn2c(Br)nc3c2c(=O)[nH]c(=O)n3C)n1,-0.887%
12,O=C1N=c2ccccc2=C1c1sc(NS(=O)(=O)Cc2ccccc2)nc1O,15.6%
13,CCOc1ccc(NC(=O)CSc2nnc(-c3ccco3)n2N)cc1,14.4%
14,COc1ccc(CCNC(=S)Nc2ccc(OC)cc2)cc1,13.5%
15,O=C(c1ccco1)c1cn(CC(=O)N2CCCCCC2)c2ccccc12,-2.24%
16,COc1ccc(C(=O)NC(=S)SCC(=O)O)cc1,15.2%
17,CC(OC(=O)CN1C(=O)NC2(CCCC2)C1=O)c1ccc(F)cc1 (stereo not shown),-7.02%
18,COc1ccc(N2C(=O)CC(N(Cc3ccc(S(N)(=O)=O)cc3)C(C)=O)C2=O)cc1 (stereo not shown),6.65%
